Earlier results as cited in patent US4456597A.
Where two headings read alike, the source gives them in different places.

Key:
[1] = system: IF induction; settings: cited from earlier work; for IF inducing activity: constituents of Carthamus plants
[2] = 56 °C, 5 hours; cited from earlier work

## O=C(/C=C/c1ccc(O)cc1)C1=C(O)[C@](O)([C@@H]2O[C@H](CO)[C@@H](O)[C@H](O)[C@H]2O)C(O)=C(/C=C2/C(=O)C(C(=O)/C=C/c3ccc(O)cc3)=C(O)[C@@](O)([C@@H]3O[C@H](CO)[C@@H](O)[C@H](O)[C@H]3O)C2=O)C1=O [carthamine]
[1]
  IF inducing activity: no IF inducing activity

## phytohemagglutinin
[2]
  inactivation of IF-inducing activity on heating: inactivated
[1]; background
  IF-inducing activity: extremely low IF-inducing activity
[1]; described in the literatures
  IF-inducing activity: very weak IF-inducing activity

## carthamone
[1]
  IF inducing activity: no IF inducing activity

## pokeweed mitogen
[2]
  inactivation of IF-inducing activity on heating: inactivated
[1]; background
  IF-inducing activity: extremely low IF-inducing activity
[1]; described in the literatures
  IF-inducing activity: very weak IF-inducing activity

## neocarthamine
[1]
  IF inducing activity: no IF inducing activity
